Measurements taken from PMC10154249, “Unique progerin C-terminal peptide ameliorates Hutchinson–Gilford progeria syndrome phenotype by rescuing BUBR1” (Nature Aging, 2023).
These are yes or no findings as the source states them, for the method shown. Binding seen in cells or lysates may run through a third protein. Some entries that bind do so weakly or less than the wild type.

Chains of the proteins cited; added tags and fusions are not shown. Lines headed by an entry give the natural chain unless they say otherwise; changes in a name come on top. A line that says so, or that is headed by a name, gives the form on record, which may keep a tag or linker. Residues count along the entry.
UniProt P02545: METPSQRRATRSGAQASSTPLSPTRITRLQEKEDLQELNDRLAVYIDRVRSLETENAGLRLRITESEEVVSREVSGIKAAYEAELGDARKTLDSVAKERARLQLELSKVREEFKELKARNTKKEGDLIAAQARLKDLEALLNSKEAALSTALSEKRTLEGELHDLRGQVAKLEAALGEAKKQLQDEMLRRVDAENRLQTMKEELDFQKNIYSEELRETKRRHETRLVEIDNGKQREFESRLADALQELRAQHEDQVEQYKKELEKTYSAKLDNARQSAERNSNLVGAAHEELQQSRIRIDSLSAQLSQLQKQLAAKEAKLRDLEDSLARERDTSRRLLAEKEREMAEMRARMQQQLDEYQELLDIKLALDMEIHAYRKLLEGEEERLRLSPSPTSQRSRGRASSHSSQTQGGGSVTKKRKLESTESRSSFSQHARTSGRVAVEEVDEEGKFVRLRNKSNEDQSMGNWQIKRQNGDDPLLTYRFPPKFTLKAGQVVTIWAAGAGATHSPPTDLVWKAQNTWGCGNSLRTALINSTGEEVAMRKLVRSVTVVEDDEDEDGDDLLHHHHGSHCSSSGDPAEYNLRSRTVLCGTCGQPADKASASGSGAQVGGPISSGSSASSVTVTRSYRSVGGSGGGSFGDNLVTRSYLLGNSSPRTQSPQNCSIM
GST-lamin A: residues 1-646 of P02545
GST-tagged progerin middle region (progerin-M; aa residues 301–564): residues 301-564 of P02545
GST-tagged lamin A C-terminal region (lamin A-C; aa residues 565–664): residues 565-664 of P02545
Flag-progerin (IMR90) (P02545, form named): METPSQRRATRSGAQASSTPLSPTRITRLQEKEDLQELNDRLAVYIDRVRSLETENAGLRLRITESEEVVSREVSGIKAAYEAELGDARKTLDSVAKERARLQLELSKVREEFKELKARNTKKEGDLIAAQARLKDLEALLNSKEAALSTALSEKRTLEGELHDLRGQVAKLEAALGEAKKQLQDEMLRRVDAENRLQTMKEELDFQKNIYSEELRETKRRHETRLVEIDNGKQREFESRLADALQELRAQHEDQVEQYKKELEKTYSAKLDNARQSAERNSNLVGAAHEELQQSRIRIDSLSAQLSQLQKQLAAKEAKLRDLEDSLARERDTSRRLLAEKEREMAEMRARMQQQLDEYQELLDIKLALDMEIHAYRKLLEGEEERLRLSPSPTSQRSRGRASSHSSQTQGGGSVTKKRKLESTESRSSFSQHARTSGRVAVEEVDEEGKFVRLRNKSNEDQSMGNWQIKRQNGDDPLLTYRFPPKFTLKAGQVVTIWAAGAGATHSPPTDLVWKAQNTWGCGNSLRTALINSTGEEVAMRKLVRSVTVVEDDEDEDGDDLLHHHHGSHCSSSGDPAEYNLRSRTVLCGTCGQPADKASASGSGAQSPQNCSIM
GST-tagged progerin C-terminal region (progerin-C; aa residues 565–614) (P02545, form named): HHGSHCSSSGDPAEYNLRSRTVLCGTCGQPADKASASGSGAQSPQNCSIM
UniProt O43684: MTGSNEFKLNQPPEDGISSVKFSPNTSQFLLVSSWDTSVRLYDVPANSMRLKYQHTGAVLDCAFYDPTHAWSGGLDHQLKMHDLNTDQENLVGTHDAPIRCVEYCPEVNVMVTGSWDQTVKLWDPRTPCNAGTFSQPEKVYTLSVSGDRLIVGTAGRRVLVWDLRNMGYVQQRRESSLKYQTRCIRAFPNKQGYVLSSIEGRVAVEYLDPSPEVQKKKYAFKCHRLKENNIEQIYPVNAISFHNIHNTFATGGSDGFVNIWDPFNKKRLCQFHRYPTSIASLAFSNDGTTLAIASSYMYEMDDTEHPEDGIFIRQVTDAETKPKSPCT
UniProt O60566: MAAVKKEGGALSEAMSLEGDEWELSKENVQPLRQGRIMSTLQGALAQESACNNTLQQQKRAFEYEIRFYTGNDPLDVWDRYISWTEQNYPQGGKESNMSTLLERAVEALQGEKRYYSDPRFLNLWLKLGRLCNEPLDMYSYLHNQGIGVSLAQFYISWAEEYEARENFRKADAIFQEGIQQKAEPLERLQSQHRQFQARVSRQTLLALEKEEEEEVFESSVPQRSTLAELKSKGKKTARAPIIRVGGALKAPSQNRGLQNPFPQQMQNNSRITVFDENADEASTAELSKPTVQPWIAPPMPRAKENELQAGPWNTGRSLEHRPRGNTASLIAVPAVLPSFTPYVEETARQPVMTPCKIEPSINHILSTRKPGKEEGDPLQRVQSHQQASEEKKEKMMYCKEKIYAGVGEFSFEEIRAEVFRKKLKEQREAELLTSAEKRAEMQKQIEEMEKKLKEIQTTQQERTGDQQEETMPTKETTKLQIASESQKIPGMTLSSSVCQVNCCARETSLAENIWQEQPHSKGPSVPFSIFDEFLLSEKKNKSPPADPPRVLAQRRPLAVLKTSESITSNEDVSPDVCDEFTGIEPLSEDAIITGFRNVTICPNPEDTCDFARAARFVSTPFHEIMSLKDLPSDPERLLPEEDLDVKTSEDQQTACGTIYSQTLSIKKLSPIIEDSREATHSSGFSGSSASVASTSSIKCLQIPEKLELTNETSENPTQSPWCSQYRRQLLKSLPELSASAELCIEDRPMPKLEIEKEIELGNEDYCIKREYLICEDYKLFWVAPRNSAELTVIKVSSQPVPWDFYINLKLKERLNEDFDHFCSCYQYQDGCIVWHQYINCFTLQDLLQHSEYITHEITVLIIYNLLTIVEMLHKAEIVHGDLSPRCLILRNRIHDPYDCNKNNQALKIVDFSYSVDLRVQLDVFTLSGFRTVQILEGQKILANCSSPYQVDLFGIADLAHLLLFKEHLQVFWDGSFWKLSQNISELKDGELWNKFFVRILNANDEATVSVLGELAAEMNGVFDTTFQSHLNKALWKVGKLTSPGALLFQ
UniProt Q9Z1S0: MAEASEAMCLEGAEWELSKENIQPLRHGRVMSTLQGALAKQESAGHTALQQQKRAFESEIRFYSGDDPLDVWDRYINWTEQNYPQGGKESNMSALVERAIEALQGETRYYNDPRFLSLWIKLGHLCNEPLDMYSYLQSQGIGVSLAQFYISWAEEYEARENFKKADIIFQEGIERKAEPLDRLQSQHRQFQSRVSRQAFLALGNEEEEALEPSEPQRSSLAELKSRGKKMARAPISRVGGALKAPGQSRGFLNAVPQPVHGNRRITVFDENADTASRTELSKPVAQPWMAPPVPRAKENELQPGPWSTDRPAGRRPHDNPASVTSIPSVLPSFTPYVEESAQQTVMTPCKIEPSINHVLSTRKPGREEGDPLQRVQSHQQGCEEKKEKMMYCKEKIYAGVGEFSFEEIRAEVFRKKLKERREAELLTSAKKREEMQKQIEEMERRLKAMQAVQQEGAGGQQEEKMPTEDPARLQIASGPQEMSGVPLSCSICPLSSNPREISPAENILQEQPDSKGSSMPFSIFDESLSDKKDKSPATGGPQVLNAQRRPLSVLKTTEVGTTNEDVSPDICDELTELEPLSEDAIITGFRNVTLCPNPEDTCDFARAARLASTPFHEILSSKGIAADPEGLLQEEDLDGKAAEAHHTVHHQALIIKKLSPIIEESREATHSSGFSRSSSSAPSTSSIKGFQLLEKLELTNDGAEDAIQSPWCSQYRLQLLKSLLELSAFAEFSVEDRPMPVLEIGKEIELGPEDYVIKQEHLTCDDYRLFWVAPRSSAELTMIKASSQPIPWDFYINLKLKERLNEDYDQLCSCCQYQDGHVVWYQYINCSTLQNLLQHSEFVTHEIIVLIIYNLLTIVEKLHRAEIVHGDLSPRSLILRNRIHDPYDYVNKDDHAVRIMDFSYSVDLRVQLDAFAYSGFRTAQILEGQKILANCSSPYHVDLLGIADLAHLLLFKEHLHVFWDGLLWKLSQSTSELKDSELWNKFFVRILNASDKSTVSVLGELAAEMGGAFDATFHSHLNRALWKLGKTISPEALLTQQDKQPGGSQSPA
UniProt P26599: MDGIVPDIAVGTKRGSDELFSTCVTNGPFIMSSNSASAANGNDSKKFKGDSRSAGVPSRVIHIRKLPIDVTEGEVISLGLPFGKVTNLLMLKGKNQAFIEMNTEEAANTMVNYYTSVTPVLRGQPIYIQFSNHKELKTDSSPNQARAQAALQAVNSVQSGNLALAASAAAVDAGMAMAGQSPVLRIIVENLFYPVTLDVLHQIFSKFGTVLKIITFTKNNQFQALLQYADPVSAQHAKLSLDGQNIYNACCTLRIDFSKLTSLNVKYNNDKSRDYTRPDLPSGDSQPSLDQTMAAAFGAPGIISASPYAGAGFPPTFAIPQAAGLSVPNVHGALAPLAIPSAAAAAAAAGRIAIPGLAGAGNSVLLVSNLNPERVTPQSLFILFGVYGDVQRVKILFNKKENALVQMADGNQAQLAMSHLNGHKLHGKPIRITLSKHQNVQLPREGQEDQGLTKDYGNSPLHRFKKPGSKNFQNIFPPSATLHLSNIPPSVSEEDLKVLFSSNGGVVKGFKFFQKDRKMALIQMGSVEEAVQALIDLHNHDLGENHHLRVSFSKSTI

Key:
[1] = target: Flag-progerin (NIH-3T3) (human) (UniProt P02545); test: co-IP; IMR90 cells or NIH-3T3 cells transfected with Flag-progerin; IP with the Flag antibody
[2] = target: Flag-progerin (HEK-293T) (human) (UniProt P02545); test: co-IP; HEK-293T cells transfected or cotransfected with tagged constructs; CoIP buffer (25 mM Tris-HCl pH 7.5, 150 mM KCl, 5 mM EDTA, 0.5% NP-40); IP with anti-Flag, anti-HA or anti-GFP antibody, Protein A/G magnetic beads, 4 °C
mVenus-progerin (human) = mVenus-progerin (human) (UniProt P02545); test: co-IP; H1299 cells transfected with mVenus or mVenus-progerin; IP with the anti-GFP antibody
Flag-lamin A (human) = Flag-lamin A (human) (UniProt P02545); test: co-IP; HEK-293T cells transfected or cotransfected with tagged constructs; CoIP buffer (25 mM Tris-HCl pH 7.5, 150 mM KCl, 5 mM EDTA, 0.5% NP-40); IP with anti-Flag, anti-HA or anti-GFP antibody, Protein A/G magnetic beads, 4 °C
[3] = target: BUB3 (endogenous, HEK-293T) (human (endogenous in HEK-293T)) (UniProt O43684); test: co-IP; HEK-293T cells transfected with tagged constructs and treated with or without UPCP peptide (6, 12, 18 μM; 18 μM for 48 h in Extended Data Fig. 9; with nocodazole 200 ng/ml for BUB3 and CDC20)
HA-progerin (human) [4] = target: HA-progerin (human) (UniProt P02545); test: co-IP; HEK-293T cells cotransfected with increasing amounts of Flag-progerin-C (5, 10 and 15 μg) and HA-progerin; IP with anti-Flag or anti-HA antibody
[5] = target: Flag-tagged progerin C-terminal region (progerin-C; aa residues 565–614) (human) (UniProt P02545); test: as above
[6] = target: Flag-tagged progerin C-terminal region (progerin-C; aa residues 565–614) (human) (UniProt P02545); test: co-IP; HEK-293T cells transfected or cotransfected with tagged constructs; CoIP buffer (25 mM Tris-HCl pH 7.5, 150 mM KCl, 5 mM EDTA, 0.5% NP-40); IP with anti-Flag, anti-HA or anti-GFP antibody, Protein A/G magnetic beads, 4 °C
[7] = target: Flag-tagged progerin middle region (progerin-M; aa residues 301–564) (human) (UniProt P02545); test: as above
[8] = target: Flag-tagged lamin A C-terminal region (lamin A-C; aa residues 565–664) (human) (UniProt P02545); test: as above
GST-progerin (human) = GST-progerin (human) (UniProt P02545); test: pull-down; GST-progerin, GST-lamin A or their GST-tagged truncated mutants incubated with HEK-293T cell lysate; BUBR1 detected by blot; only the target purified
[9] = target: GST-tagged progerin C-terminal region (progerin-C; aa residues 565–614) (human) (UniProt P02545); test: as above
[10] = target: GST-tagged progerin middle region (progerin-M; aa residues 301–564) (human) (UniProt P02545); test: as above
[11] = target: GST-tagged lamin A C-terminal region (lamin A-C; aa residues 565–664) (human) (UniProt P02545); test: as above
GST-lamin A (human) = GST-lamin A (human) (UniProt P02545); test: as above
HA-progerin (human) [12] = target: HA-progerin (human) (UniProt P02545); test: co-IP; HEK-293T cells cotransfected with truncated mutants of progerin-C and HA-progerin; progerin IP with the anti-HA antibody
HA-BUBR1 (human) [13] = target: HA-BUBR1 (human) (UniProt O60566); test: co-IP; HEK-293T cells transfected with tagged constructs and treated with or without UPCP peptide (6, 12, 18 μM; 18 μM for 48 h in Extended Data Fig. 9; with nocodazole 200 ng/ml for BUB3 and CDC20)
HA-BUBR1 (human) [14] = target: HA-BUBR1 (human) (UniProt O60566); test: co-IP; HEK-293T cells transfected or cotransfected with tagged constructs; CoIP buffer (25 mM Tris-HCl pH 7.5, 150 mM KCl, 5 mM EDTA, 0.5% NP-40); IP with anti-Flag, anti-HA or anti-GFP antibody, Protein A/G magnetic beads, 4 °C
[15] = target: Flag-progerin (IMR90) (human) (UniProt P02545); test: co-IP; IMR90 cells or NIH-3T3 cells transfected with Flag-progerin; IP with the Flag antibody

Question: With “BubR1 (endogenous, NIH-3T3) (from UniProt Q9Z1S0 1-1052)” as the substance, how does the binding [1] read?
Answer: Its binding is “binds”.

Question: Which binding [2] does the source give for “HA-BUBR1-N truncated mutant (aa residues 1–426) (from UniProt O60566 1-426) (domain or fragment)” here?
Answer: Its binding is “binds”.

Question: “BUBR1 (endogenous, H1299) (from UniProt O60566 1-1050)” was tested. Which binding (mVenus-progerin (human)) did it give?
Answer: The binding was “binds”.

Question: How did the binding [2] turn out when “PTBP1 (endogenous, HEK-293T) (from UniProt P26599 1-557)” was run?
Answer: Its binding is “binds”.

Question: GFP-BUBR1 (from UniProt O60566 1-1050) was tested. Which binding [2] did it give?
Answer: Its binding is “binds”.

Question: How did the binding [2] turn out when HA-BUBR1 (from UniProt O60566 1-1050) was run?
Answer: The binding was “binds”.

Question: What about the binding (Flag-lamin A (human)) of the same substance?
Answer: The binding was “binds”.

Question: How did the binding [3] turn out when “BUBR1 (endogenous, HEK-293T) (from UniProt O60566 1-1050)” was run?
Answer: The binding was “binds”.

Question: And the binding (HA-progerin (human) [4])?
Answer: Its binding is “binds”.

Question: What about the binding [5] of the same substance?
Answer: Its binding is “binds”.

Question: What about the binding [6] of the same substance?
Answer: The binding was “binds”.

Question: And the binding [7]?
Answer: The binding was “binds”.

Question: What about the binding [8] of the same substance?
Answer: The binding was “no binding”.

Question: What about the binding (GST-progerin (human)) of the same substance?
Answer: The binding was “binds”.

Question: What about the binding [9] of the same substance?
Answer: Its binding is “binds”.

Question: And the binding [10]?
Answer: The binding was “binds”.

Question: What about the binding [11] of the same substance?
Answer: Its binding is “no binding”.

Question: What about the binding (GST-lamin A (human)) of the same substance?
Answer: Its binding is “binds”.

Question: What about the binding (HA-progerin (human) [12]) of the same substance?
Answer: The binding was “binds”.

Question: Which results are given for Flag-PTBP1 (from UniProt P26599 1-557)?
Answer: binding (HA-BUBR1 (human) [13]): binds; binding (HA-BUBR1 (human) [14]): binds

Question: Which binding [15] does the source give for “BUBR1 (endogenous, IMR90) (from UniProt O60566 1-1050)” here?
Answer: Its binding is “binds”.
